Some of the results follow.
Legend:
HSkMC = human skeletal muscle cells; test: cytotoxicity call (relative viability < 0.9); conditions: 10 µM
HepG2 = test: cytotoxicity call (relative viability < 0.9); conditions: 10 µM
S. aureus RN4220 = test: growth inhibition call (relative growth <= 0.2); conditions: 50 µM

SMILES | cytotoxicity call (HSkMC) | cytotoxicity call (HepG2) | growth inhibition call (S. aureus RN4220)
N#C[C@H](O[C@@H]1O[C@H](CO)[C@@H](O)[C@H](O)[C@H]1O)c1ccc(O)cc1 | inactive | inactive | inactive
COc1cc2c(cc1-c1cc3cc4ccoc4cc3oc1=O)OCO2 | inactive | inactive | inactive
CC(C)c1ccc2c(c1O)CCC1C3=C(CCC21C)C(=O)OC3 (stereo unspecified) | inactive | inactive | inactive
CCC12C=CCN3CCC4(c5ccc(OC)cc5N(C)C4C(O)(C(=O)OC)C1OC(C)=O)C32 (stereo unspecified) | inactive | inactive | inactive
C=C(C)C1C2OC(=O)C1C1(O)CC3OC34C(=O)OC2C14C (stereo unspecified) | inactive | inactive | inactive
NCC[C@H]1COc2ccccc2O1 | inactive | inactive | inactive
COS(C)(=O)=O | inactive | inactive | inactive
COC(=O)[C@@]1(Cc2ccccc2N=[N+]=[N-])N=C(c2ccc(OCCCO)cc2)O[C@H]1c1ccccc1N=[N+]=[N-] | active | inactive | inactive
C=CCc1cc(OC)c2c(c1OC)OCO2 | inactive | inactive | inactive
COP(=S)(OC)Oc1cc(Cl)c(Cl)cc1Cl | inactive | inactive | active
C[C@@H]1C(=O)NC[C@@H]2CN(CC3CC3)C[C@@H]21 | inactive | inactive | inactive
COc1ccc(N(C(=O)Oc2c(C)cccc2C)c2ccnc(Nc3ccc(N4CCN(C)CC4)cc3)n2)c(OC)c1 | inactive | inactive | inactive
CCOC(=O)c1c(CN2CCN(Cc3ccccc3)CC2)n(Cc2ccccc2)c2cc(Br)c(O)cc12 | active | inactive | inactive
COC1C(O)C(C)OC(OC2CCC3(C=O)C(CCC4C3CCC3(C)C(C5=CC(=O)OC5)CCC43O)C2)C1O (stereo unspecified) | active | active | inactive
CN1C2CCC1CC(OC(=O)C(CO)c1ccccc1)C2.O=S(=O)(O)O (stereo unspecified) | inactive | inactive | inactive
Cc1ccc2nc(CCN)[nH]c2c1 | inactive | inactive | inactive
CC1CCC2(NC1)OC1CC3C4CC=C5CC(O)CCC5(C)C4CCC3(C)C1C2C (stereo unspecified) | inactive | inactive | inactive
COC(=O)C(c1ccccc1)C1CCCCN1.Cl (stereo unspecified) | inactive | inactive | inactive
Nc1nc(=O)c2ncn([C@H]3O[C@@H](COP(=O)(O)OP(O)(O)=S)[C@H](O)[C@@H]3O)c2[nH]1 | inactive | inactive | inactive

SMILES | cytotoxicity call (HSkMC) | cytotoxicity call (HepG2) | growth inhibition call (S. aureus RN4220)
COc1ccc(C2(CN)CCCC2)cc1 | inactive | inactive | inactive
[N-]=[N+]=NCC(=O)N1CCOCC1 | inactive | inactive | inactive
C[C@H](CO)N1C[C@H](C)[C@H](CN(C)C(=O)Oc2ccccc2)OCc2ccccc2-c2c(n(C)c3ccccc23)C1=O | inactive | inactive | inactive
COc1cc2c(c(OC)c1OC)-c1ccc(OC)c(=O)cc1C(NC(C)=O)CC2 (stereo unspecified) | inactive | active | inactive
CCOC(=O)CC(SP(=S)(OC)OC)C(=O)OCC (stereo unspecified) | inactive | inactive | inactive
Cl.c1cncc(C2CCCCN2)c1 (stereo unspecified) | inactive | inactive | inactive
CC(=O)[O][Cd][O]C(C)=O | inactive | inactive | active
NC(=O)N1C[C@@H]2C[C@H]1CN2 | inactive | inactive | inactive
CN1CCN(Cc2ccc[nH]2)CC1 | inactive | inactive | inactive
Cc1ccc(OC(=O)N(C)C[C@H]2OCc3ccccc3-c3c(n(C)c4ccccc34)C(=O)N([C@@H](C)CO)C[C@@H]2C)cc1 | inactive | active | inactive
CC[C@@H](C)C(=O)O[C@H]1[C@H](O)[C@H]2[C@@H](CN3C[C@@H](C)CC[C@@H]3[C@@]2(C)O)[C@H]2C[C@]34O[C@]5(O)[C@@H](OC(=O)[C@@](C)(O)[C@@H](C)O)CC[C@@]3(C)[C@@H]5[C@@H](OC(C)=O)[C@@H](OC(C)=O)[C@@H]4[C@@]21O | inactive | active | inactive
CC1(C)OCC2(CNC2)CO1 | inactive | inactive | inactive
CN(C)C(=O)[C@]1(Cc2ccccc2CN=[N+]=[N-])N=C(c2ccc(OCCCO)cc2)O[C@@H]1c1ccccc1N=[N+]=[N-] | inactive | inactive | inactive
[N-]=[N+]=NCc1ccccc1C[C@]1(C(=O)NCc2ccccc2)N=C(c2ccc(OCCCO)cc2)O[C@H]1c1ccccc1N=[N+]=[N-] | inactive | active | inactive
C[C@@H]1[C@H](O)[C@@H](C)/C=C\C=C/CC\C=C/C=C\C=C/C=C\[C@@H](O[C@@H]2O[C@H](C)[C@@H](O)[C@H](N)[C@@H]2O)C[C@@H]2O[C@](O)(C[C@@H](O)[C@H](O)CC[C@@H](O)C[C@@H](O)C[C@@H](O)CC(=O)O[C@H]1C)C[C@H](O)[C@H]2C(=O)O | inactive | inactive | inactive
CNc1ccc2oc(C[C@H]3O[C@@]4(CC[C@H]3C)O[C@H]([C@H](C)C(=O)c3ccc[nH]3)[C@H](C)C[C@H]4C)nc2c1C(=O)O | active | active | inactive
CC1=C2CCC3C4CCC(=O)C4(C)CCC3C2(C)CCC1=O (stereo unspecified) | inactive | inactive | inactive
C#CC(C)(O)CC (stereo unspecified) | inactive | inactive | inactive
